Data: paper PMC6919601, “Identification of Plasmodium dipeptidyl aminopeptidase allosteric inhibitors by high throughput screening” (PLoS ONE, 2019)
Screen size: about 110,000 compounds; about 230 (0.21%) showed an effect of 50% or more. The list shows a part of the results.

Each compound was assayed against DPAP1 (Plasmodium falciparum, UniProt Q8IIJ9) (assay: primary screen, percent inhibition; read by cleavage of a fluorogenic dipeptide substrate; higher = more effect of the substance).
Design: species or system P. falciparum D10 trophozoite lysates; single well
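Note: 30 min substrate incubation versus DMSO and 10 µM JCP410 controls.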

DPAP1, sequence (Q8IIJ9 whole entry, looked up): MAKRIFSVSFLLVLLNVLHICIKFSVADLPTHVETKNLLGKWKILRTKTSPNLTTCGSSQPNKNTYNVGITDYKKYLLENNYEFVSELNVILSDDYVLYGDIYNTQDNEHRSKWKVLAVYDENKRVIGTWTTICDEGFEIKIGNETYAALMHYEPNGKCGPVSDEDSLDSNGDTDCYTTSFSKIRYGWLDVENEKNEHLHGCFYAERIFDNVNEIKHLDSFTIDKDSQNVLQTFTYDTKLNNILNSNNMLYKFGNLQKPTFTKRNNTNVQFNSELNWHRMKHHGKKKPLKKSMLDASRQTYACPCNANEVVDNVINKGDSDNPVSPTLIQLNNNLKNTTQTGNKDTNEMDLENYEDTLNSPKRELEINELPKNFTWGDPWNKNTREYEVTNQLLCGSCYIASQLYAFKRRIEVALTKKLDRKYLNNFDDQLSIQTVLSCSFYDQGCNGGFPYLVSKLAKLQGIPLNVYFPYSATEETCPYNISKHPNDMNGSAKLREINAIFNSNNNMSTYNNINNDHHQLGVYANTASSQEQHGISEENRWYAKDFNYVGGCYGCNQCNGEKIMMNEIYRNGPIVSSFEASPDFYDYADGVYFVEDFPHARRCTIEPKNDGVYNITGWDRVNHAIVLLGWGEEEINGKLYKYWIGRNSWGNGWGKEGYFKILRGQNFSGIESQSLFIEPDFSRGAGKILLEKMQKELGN

Row | SMILES | % Inhibition @ 10 uM [%]
1 | CCOc1ccc(-c2[nH]nc3c2C(c2cccs2)C(C#N)=C(N)O3)cc1OC (stereo not drawn) | 0.674
2 | CCCCCCc1cc(O)c2c3c(c(=O)oc2c1)CCC(C)C3 (stereo not drawn) | -2.6
3 | O=C(O)CCCCCN1C(=O)C(O)=C(C(=O)/C=C/c2ccccc2)C1c1ccccc1F (stereo not drawn) | -1.93
4 | O=C(/C=C/c1ccccc1)NC(=S)N1CCOCC1 | -2.66
5 | COc1ccccc1/C=C1/SC(Nc2ccccc2O)=NC1=O | -6.36
6 | Cc1cc(C)c(S(=O)(=O)Nc2ccc(F)cc2)c(C)c1 | 2.46
7 | COc1ccc(CCNc2nc3ccc(C)cc3n3nnnc23)cc1OC | -2.92
8 | FC(F)Oc1ccccc1C1C=C(c2ccc(Br)s2)Nc2ncnn21 (stereo not drawn) | 0.219
9 | Cc1cc(NC(=O)C(=O)NC(C)CCc2ccccc2)no1 (stereo not drawn) | -3.49
10 | O=C1/C(=C\c2cccnc2)Oc2cc(O)ccc21 | 0.628
11 | CC(C(=O)NCCCN1CCOCC1)n1cccc1C(=O)c1ccccc1 (stereo not drawn) | 5.84
12 | COc1ccccc1C(=O)Nc1cccc(NC(=O)c2ccccc2OC)n1 | -0.942
13 | CN(C)c1ccc(CN2CCC(O)CC2)cc1 | 0.847
14 | CN(C)c1ccc(C2C(C(=O)c3ccc(F)cc3)=C(O)C(=O)N2Cc2cccnc2)cc1 (stereo not drawn) | 1.29
15 | CCOc1ccc2ncc(C(=O)c3ccccc3)c(S(=O)(=O)c3ccccc3)c2c1 | 0.0695
16 | O=C(Nc1ccccc1C(=O)Nc1ccccc1)c1ccc(F)cc1 | -5.15
17 | O=C1c2ccccc2C2=Nc3ccccc3SC(c3ccc(Cl)cc3)C12 (stereo not drawn) | 2.22
18 | CCCCCCNC(=O)c1cccc2c1C(=O)N(C1CCCCC1)C2 | 4.01
19 | Cc1nc(-c2ccccc2)nc2nc(-c3ccccc3)cc(O)c12 | -5.36
20 | CCOC(=O)c1c(C)[nH]c(C)c1S(=O)(=O)NCC(=O)N1CC=C(c2ccccc2)CC1 | 2.24
21 | CCOC(=O)N1CCN(CC(O)COc2ccc3c(c2)c(C(C)=O)c(C)n3-c2ccc(C)cc2)CC1 (stereo not drawn) | -0.764
22 | O=C(Cn1c(-c2ccccn2)nc2ccccc21)NCCc1ccccc1 | 2.27
23 | CCCn1c(NCc2cc(OC)c(O)c(OC)c2)nc2ccccc21 | -3.52
24 | Cc1cc(-c2ccc(S(=O)(=O)N3CCC(Cc4ccccc4)CC3)s2)on1 | 3.41
25 | Cc1ccc(CCNC(=O)CS(=O)Cc2nc(-c3ccccc3F)oc2C)cc1 (stereo not drawn) | -8.65
26 | c1ccc(Nc2cc(-c3ccccc3)on2)cc1 | -9.37

Row | SMILES | % Inhibition @ 10 uM [%]
27 | O=C(COc1ccccc1Cl)N(Cc1ccco1)Cc1ccccc1Cl | -5.91
28 | Cc1ccc(CSc2nc3ccc(C(=O)NCCN4CCOCC4)cc3n2C)cc1 | -1.97
29 | O=C1Nc2ccccc2SCC1CC(=O)N1CCN(Cc2ccccc2)CC1 (stereo not drawn) | -6.05
30 | Cc1ccc(N2CCN(C(=O)c3ccccc3C(=O)O)CC2)cc1 | 5.07
31 | COc1ccc2c(c1OC)C(=O)N(c1nc(-c3ccc(C)cc3)cs1)C2=O | 2.26
32 | Cc1ccc(Sc2cc(C(=O)NCCCN3CCOCC3)c3ccccc3n2)cc1 | -10.3
33 | O/N=C1/CCCSc2ccccc21 | 1.27
34 | O=C(Nc1ccc2c(c1)OCCO2)C1c2ccccc2Oc2ccccc21 | -0.988
35 | CC1CCN(C(=O)c2cc3c(-c4ccc(Cl)cc4)nn(C)c3s2)CC1 | 2.14
36 | CCOc1cccc(C(=O)N(Cc2cc(OC)c(OC)c(OC)c2)C2CCS(=O)(=O)C2)c1 (stereo not drawn) | 0.0367
37 | O=C1CCC(=O)N1c1cccc2ccccc12 | 5.04
38 | CCCC(=O)N1CCN(c2ccc(NC(=O)CSc3ccc(Cl)cc3)cc2)CC1 | -0.519
39 | CCN(/C=N/c1c(C#N)sc2nc3ccccc3n12)CC | 0.687
40 | Cc1cc(C)cc(CSC[C@H](NC(=O)c2ccccc2)C(=O)NCC#N)c1 | -3.49
41 | CN(C)CCCN(CCCN(C)C)Cc1cc([N+](=O)[O-])ccc1O | 2.1
42 | CCOc1ccc2nc(NC(=O)COc3ccc(C)cc3)sc2c1 | -0.95
43 | Nc1c(C(=O)Nc2cc(Cl)cc(Cl)c2)sc2nc(-c3ccncc3)ccc12 | 17.8
44 | CCSc1nc2c(c(=O)[nH]c(=O)n2C)n1Cc1ccc(Cl)cc1 | -2.89
45 | COc1ccc(COC(=O)N[C@@H](CC(C)C)C(=O)NCC#N)cc1 | -8.26
46 | CNS(=O)(=O)c1ccc2nc(NC(=O)c3ccncc3)sc2c1 | -1.05
47 | CCOC(=O)c1[nH]c(C)c(C(=O)NCCN2CCOCC2)c1C | -3.44
48 | NC(=O)c1ccccc1NC(=O)c1cccnc1 | -3.71
49 | OCCN(CCO)C1CCC(c2ccccc2)CC1 (stereo not drawn) | 3.19
50 | Cc1cc(-c2ccc(C)c(S(=O)(=O)N3CCC(N(C)C(C)C)CC3)c2)on1 | 4.87
51 | COC(=O)Nc1ccc(S(=O)(=O)N2CCOCC2)cc1 | -6.68
52 | COc1cccc(C(=O)N2C(C(=O)O)CSC2c2ccccc2Cl)c1 (stereo not drawn) | -4.39

Row | SMILES | % Inhibition @ 10 uM [%]
53 | N#CCc1ccc(NC(=O)c2ccccn2)cc1 | -1.52
54 | COC(=O)C1=NNC(C(=O)c2ccco2)C1c1ccccc1 (stereo not drawn) | 0.0289
55 | Cc1cccc(N2C(=O)CC(NC3CCCC3)C2=O)c1 (stereo not drawn) | 1.58
56 | C#CCOC(=O)CSc1nc2ccccc2s1 | -10.1
57 | CCCNc1nc2c(c(=O)n(C)c(=O)n2C)n1C(C)C | -3.27
58 | Cc1ccc(C2C(=O)N(C3CCCCC3)CC(=O)N2CCc2ccccc2)cc1 (stereo not drawn) | -3.94
59 | Cc1ccccc1S(=O)Cc1ccc(C(=O)NCCc2cccs2)o1 (stereo not drawn) | 9.97
60 | O=C(Cn1ncc2c3ccccc3nc-2c1O)N1CCN(Cc2ccccc2)CC1 | 5.05
61 | COc1ccccc1N1CCN(C(=O)c2ccccc2Br)CC1 | -3.77
62 | CCC(Oc1ccccc1)C(=O)Nc1ccncc1 (stereo not drawn) | 0.24
63 | C#CCn1c(CCCNC(=O)c2ccco2)nc2ccccc21 | -1.22
64 | Cn1c(C(O)(c2ccccc2)c2ccccc2)nc2ccccc21 | 6.49
65 | CCNC(=O)c1ccccc1NC(=O)c1ccc(OC)c(S(=O)(=O)N2CCCC2)c1 | 0.727
66 | O=C(Nc1nc2nc(-c3ccccc3)cc(O)n2n1)c1ccccc1 | -4.91
67 | CCN(CC)CCCNc1ncnc2c1cnn2-c1ccc(C)cc1 | -0.0781
68 | CCOC(=O)c1c(NC(=O)N2CCC(CN3CCOCC3)CC2)sc2c1CCCC2 | 4.67
69 | O=C(NC1CCCCC1)c1ccccc1NC(=O)C(F)(F)F | -5.34
70 | CC(NC(=O)c1nn(C)c(=O)c2ccccc12)c1ccccc1 (stereo not drawn) | 2.31
71 | CCOC(=O)C1=C(C)N=c2s/c(=C\c3cc(OC)ccc3OC)c(=O)n2C1c1ccc(N(C)C)cc1 (stereo not drawn) | 4.52
72 | CCOC(=O)c1c(NC(=O)Cc2coc3cc(C)cc(C)c23)sc(C)c1C | 1
73 | O=c1oc2ccc(Cl)cc2n1S(=O)(=O)c1ccccc1 | -4.43
74 | CCOC(=O)N1CCN(Cc2cc(=O)oc3ccc(OCC)cc23)CC1 | 1.67
75 | O=[N+]([O-])c1cccnc1N1CCOCC1 | -4.4
76 | CCOC(=O)N1CCN(S(=O)(=O)N2CCCC(C(=O)NCCOC)C2)CC1 (stereo not drawn) | -3.12
77 | COc1ccc(C2C(C#N)=C(N)N(c3ccc(Cl)cc3)C3=C2C(=O)CC(C)(C)C3)cc1 (stereo not drawn) | -2.21
78 | O=C(O)C1C2CC3CC(C2)CC1(n1ncc(Cl)c(Cl)c1=O)C3 (stereo not drawn) | 26.7

Row | SMILES | % Inhibition @ 10 uM [%]
79 | CSc1ccccc1OC1CCN(Cc2ccccc2)CC1 | -9.79
80 | O=C(Cn1cc(S(=O)(=O)N2CCCC2)c(S(=O)(=O)N2CCCC2)c1)N1CCCCCC1 | -5.48
81 | CCCC1=Nc2ncnn2C(c2cccc(OC)c2OC)/C1=C(/O)OCC (stereo not drawn) | 3.32
82 | CC(=O)N1N=C2C3CCN(CC3)C2C1c1ccc(Cl)cc1Cl (stereo not drawn) | -2.45
83 | O=C(NCCc1ccc(Cl)cc1)c1ccc2nc(N3CCOCC3)sc2c1 | 1.03
84 | CCOC(=O)c1cc(C)n(-c2ccc(C(=O)NC3CCCCCC3)cc2)c1C | -0.35
85 | COc1cc(CO)ccc1OCc1ccc(Cl)nc1 | 5.13
86 | Cn1nnnc1SCc1cccc(CSc2nnnn2C)n1 | 2.8
87 | O=S(=O)(c1cc(C(F)(F)F)ccc1Cl)N1CCCCC1 | -1.71
88 | CC(C)NC(=O)c1cc(-c2ccc(O)cc2)on1 | 3.27
89 | COc1cc(S(=O)(=O)NC2CC(C)(C)NC(C)(C)C2)ccc1F | -6.94
90 | C=CCc1cccc2cc(C(N)=O)c(=O)oc12 | -3.79
91 | CCCCN(C)C(=O)Cc1c(C(=O)O)[nH]c2ccccc12 | -2.01
92 | CCCCCCC(=O)c1c(C)[nH]c(C(=O)OCC)c1C | 17.5
93 | c1ccc(CN(Cc2ccccc2)c2ncnc3[nH]cnc23)cc1 | 5.12
94 | CCOC1=C(C)OC(N)=C(C#N)C1c1ccc(OC)cc1 (stereo not drawn) | 0.968
95 | Cc1cc([N+](=O)[O-])ccc1NC(=O)c1ccc(C(C)(C)C)cc1 | -4.08
96 | CC(CNC(=O)c1cc2oc3ccccc3c2n1C)c1ccccc1 (stereo not drawn) | -2.17
97 | CC1CC(C)CN(S(=O)(=O)c2ccc(F)c(C(=O)NCCc3ccccc3Cl)c2)C1 (stereo not drawn) | 3.04
98 | CCc1nnc(NC(=O)Cn2ncc3c(=O)oc4ccc(C)cc4c32)s1 | -0.0115
99 | CC(C)(C)N1C(=O)c2ccc(C(=O)c3ccc(C(=O)O)cc3)cc2C1=O | 3.44
100 | O=S(=O)(NCc1ccc2c(c1)OCO2)c1cccs1 | 2.65
101 | Cc1ccsc1C1C(C#N)=C(N)Oc2[nH]nc(C(C)(C)C)c21 (stereo not drawn) | -4.03
102 | O=C(NC1CCN(Cc2ccccc2)CC1)c1cccs1 | -1.5
